Some of the results follow.
How the values were obtained:
Assay in all cases: glycan array binding signal (z-score within array); higher = stronger binding
Conditions in all cases: glycan notation: IUPAC condensed, linker removed
[1] = biological target: Fuc(a1-3)[Gal(b1-4)]GlcNAc(b1-3)Gal(b1-4)[Fuc(a1-3)]GlcNAc(b1-3)Gal(b1-4)[Fuc(a1-3)]GlcNAc
Outline: (§1)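 From the Consortium for Functional Glycomics database, 3228 arrays were curated, keeping only those whose protein sequence was available. Binding is given as a within-array Z-score averaged across arrays sharing a protein sequence and across linkers. Negative Z-scores can be read as non-binding.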

[2] = biological target: Fuc(a1-3)[Gal(b1-4)]GlcNAc(b1-3)GalNAc
Outline: as §1

[3] = biological target: Fuc(a1-3)[Gal(b1-4)]GlcNAc(b1-4)Gal(b1-4)[Fuc(a1-3)]GlcNAc
Outline: as §1

[4] = biological target: Fuc(a1-3)[Gal(b1-4)]GlcNAc(b1-4)Gal(b1-4)[Fuc(a1-3)]GlcNAc(b1-4)Gal(b1-4)[Fuc(a1-3)]GlcNAc
Outline: as §1

[5] = biological target: Fuc(a1-3)[Gal(b1-4)]GlcNAc(b1-6)GalNAc
Outline: as §1

[6] = biological target: Fuc(a1-3)[Gal(b1-4)]GlcNAc(b1-6)[Gal(b1-3)GlcNAc(b1-3)]Gal(b1-4)Glc
Outline: as §1

[7] = biological target: Fuc(a1-3)[Gal(b1-4)]GlcNAc6S
Outline: as §1

[8] = biological target: Fuc(a1-3)[Gal3S(b1-4)]Glc
Outline: as §1

[9] = biological target: Fuc(a1-3)[Gal3S(b1-4)]Glc6S
Outline: as §1

[10] = biological target: Fuc(a1-3)[Gal3S(b1-4)]GlcNAc
Outline: as §1

[11] = biological target: Fuc(a1-3)[Gal3S(b1-4)]GlcNAc6S
Outline: as §1

[12] = biological target: Fuc(a1-3)[GalNAc(b1-4)]GlcNAc
Outline: as §1

[13] = biological target: Fuc(a1-3)[GalNAc(b1-4)]GlcNAc6S
Outline: as §1

Fuc(a1-4)GlcNAc = biological target: Fuc(a1-4)GlcNAc
Outline: as §1

Fuc(b1-3)GlcNAc = biological target: Fuc(b1-3)GlcNAc
Outline: as §1

Gal(a1-2)Gal = biological target: Gal(a1-2)Gal
Outline: as §1

Gal(a1-3)Gal = biological target: Gal(a1-3)Gal
Outline: as §1

Gal(a1-3)Gal(b1-3)GlcNAc = biological target: Gal(a1-3)Gal(b1-3)GlcNAc
Outline: as §1

[14] = biological target: Gal(a1-3)Gal(b1-3)GlcNAc(b1-2)Man
Outline: as §1

[15] = biological target: Gal(a1-3)Gal(b1-3)GlcNAc(b1-2)Man(a1-3)[Gal(a1-3)Gal(b1-3)GlcNAc(b1-2)Man(a1-6)]Man(b1-4)GlcNAc(b1-4)GlcNAc
Outline: as §1

[16] = biological target: Gal(a1-3)Gal(b1-3)GlcNAc(b1-3)GalNAc
Outline: as §1

[17] = biological target: Gal(a1-3)Gal(b1-3)GlcNAc(b1-6)GalNAc
Outline: as §1

[18] = biological target: Gal(a1-3)Gal(b1-3)[Fuc(a1-4)]GlcNAc(b1-2)Man(a1-3)[Gal(a1-3)Gal(b1-3)[Fuc(a1-4)]GlcNAc(b1-2)Man(a1-6)]Man(b1-4)GlcNAc(b1-4)GlcNAc
Outline: as §1

Gal(a1-3)Gal(b1-4)Glc = biological target: Gal(a1-3)Gal(b1-4)Glc
Outline: as §1

Gal(a1-3)Gal(b1-4)GlcNAc = biological target: Gal(a1-3)Gal(b1-4)GlcNAc
Outline: as §1

[19] = biological target: Gal(a1-3)Gal(b1-4)GlcNAc(b1-2)Man
Outline: as §1

[20] = biological target: Gal(a1-3)Gal(b1-4)GlcNAc(b1-2)Man(a1-3)[Gal(a1-3)Gal(b1-4)GlcNAc(b1-2)Man(a1-6)]Man(b1-4)GlcNAc(b1-4)GlcNAc
Outline: as §1

[21] = biological target: Gal(a1-3)Gal(b1-4)GlcNAc(b1-3)GalNAc
Outline: as §1

[22] = biological target: Gal(a1-3)Gal(b1-4)GlcNAc(b1-6)GalNAc
Outline: as §1

[23] = biological target: Gal(a1-3)Gal(b1-4)[Fuc(a1-3)]GlcNAc
Outline: as §1

[24] = biological target: Gal(a1-3)Gal(b1-4)[Fuc(a1-3)]GlcNAc(b1-2)Man(a1-3)[Gal(a1-3)Gal(b1-4)[Fuc(a1-3)]GlcNAc(b1-2)Man(a1-6)]Man(b1-4)GlcNAc(b1-4)GlcNAc
Outline: as §1

Gal(a1-3)GalNAc = biological target: Gal(a1-3)GalNAc
Outline: as §1

[25] = biological target: Gal(a1-3)[Gal(a1-4)]Gal(b1-4)GlcNAc
Outline: as §1

[26] = biological target: Gal(a1-4)Gal(b1-3)GlcNAc(b1-2)Man(a1-3)[Gal(a1-4)Gal(b1-3)GlcNAc(b1-2)Man(a1-6)]Man(b1-4)GlcNAc(b1-4)GlcNAc
Outline: as §1

Gal(a1-4)Gal(b1-4)Glc = biological target: Gal(a1-4)Gal(b1-4)Glc
Outline: as §1

Gal(a1-4)Gal(b1-4)GlcNAc = biological target: Gal(a1-4)Gal(b1-4)GlcNAc
Outline: as §1

[27] = biological target: Gal(a1-4)Gal(b1-4)GlcNAc(b1-2)Man(a1-3)[Gal(a1-4)Gal(b1-4)GlcNAc(b1-2)Man(a1-6)]Man(b1-4)GlcNAc(b1-4)GlcNAc
Outline: as §1

[28] = biological target: Gal(a1-4)Gal(b1-4)GlcNAc(b1-3)Gal(b1-4)Glc
Outline: as §1

Gal(a1-4)GlcNAc = biological target: Gal(a1-4)GlcNAc
Outline: as §1

Gal(a1-6)Glc = biological target: Gal(a1-6)Glc
Outline: as §1

Gal(b1-2)Gal = biological target: Gal(b1-2)Gal
Outline: as §1

Gal(b1-3)Gal = biological target: Gal(b1-3)Gal
Outline: as §1

Gal(b1-3)Gal(b1-4)GlcNAc = biological target: Gal(b1-3)Gal(b1-4)GlcNAc
Outline: as §1

[29] = biological target: Gal(b1-3)Gal(b1-4)GlcNAc(b1-2)Man(a1-3)[Gal(b1-3)Gal(b1-4)GlcNAc(b1-2)Man(a1-6)]Man(b1-4)GlcNAc(b1-4)GlcNAc
Outline: as §1

Gal(b1-3)GalNAc = biological target: Gal(b1-3)GalNAc
Outline: as §1

B1: LSECtin (Homo sapiens), Q6UXB4 (protein)
chain: MDTTRYSKWGGSSEEVPGGPWGRWVHWSRRPLFLALAVLVTTVLWAVILSILLSKASTERAALLDGHDLLRTNASKQTAALGALKEEVGDCHSCCSGTQAQLQTTRAELGEAQAKLMEQESALRELRERVTQGLAEAGRGREDVRTELFRALEAVRLQNNSCEPCPTSWLSFEGSCYFFSVPKTTWAAAQDHCADASAHLVIVGGLDEQGFLTRNTRGRGYWLGLRAVRHLGKVQGYQWVDGVSLSFSHWNQGEPNDAWGRENCVMMLHTGLWNDAPCDSEKDGWICEKRHNC
glycan array binding signal (z-score) [1]: -0.135 | glycan array binding signal (z-score) [2]: -0.128 | glycan array binding signal (z-score) [3]: -0.072 | glycan array binding signal (z-score) [4]: 0.161 | glycan array binding signal (z-score) [5]: -0.13 | glycan array binding signal (z-score) [6]: -0.137 | glycan array binding signal (z-score) [7]: -0.07 | glycan array binding signal (z-score) [8]: -0.136 | glycan array binding signal (z-score) [9]: 4.05 | glycan array binding signal (z-score) [10]: 0.669 | glycan array binding signal (z-score) [11]: -0.128 | glycan array binding signal (z-score) [12]: -0.152 | glycan array binding signal (z-score) [13]: -0.139 | glycan array binding signal (z-score) (Fuc(a1-4)GlcNAc): -0.206 | glycan array binding signal (z-score) (Fuc(b1-3)GlcNAc): -0.212 | glycan array binding signal (z-score) (Gal(a1-2)Gal): -0.213 | glycan array binding signal (z-score) (Gal(a1-3)Gal): -0.169 | glycan array binding signal (z-score) (Gal(a1-3)Gal(b1-3)GlcNAc): -0.228 | glycan array binding signal (z-score) [14]: -0.124 | glycan array binding signal (z-score) [15]: -0.124 | glycan array binding signal (z-score) [16]: -0.128 | glycan array binding signal (z-score) [17]: -0.136 | glycan array binding signal (z-score) [18]: -0.126 | glycan array binding signal (z-score) (Gal(a1-3)Gal(b1-4)Glc): -0.176 | glycan array binding signal (z-score) (Gal(a1-3)Gal(b1-4)GlcNAc): -0.208 | glycan array binding signal (z-score) [19]: -0.141 | glycan array binding signal (z-score) [20]: -0.131 | glycan array binding signal (z-score) [21]: -0.137 | glycan array binding signal (z-score) [22]: -0.136 | glycan array binding signal (z-score) [23]: -0.219 | glycan array binding signal (z-score) [24]: 0.318 | glycan array binding signal (z-score) (Gal(a1-3)GalNAc): -0.216 | glycan array binding signal (z-score) [25]: -0.217 | glycan array binding signal (z-score) [26]: -0.098 | glycan array binding signal (z-score) (Gal(a1-4)Gal(b1-4)Glc): -0.194 | glycan array binding signal (z-score) (Gal(a1-4)Gal(b1-4)GlcNAc): 0.114 | glycan array binding signal (z-score) [27]: -0.133 | glycan array binding signal (z-score) [28]: -0.084 | glycan array binding signal (z-score) (Gal(a1-4)GlcNAc): -0.183 | glycan array binding signal (z-score) (Gal(a1-6)Glc): -0.21 | glycan array binding signal (z-score) (Gal(b1-2)Gal): -0.187 | glycan array binding signal (z-score) (Gal(b1-3)Gal): -0.147 | glycan array binding signal (z-score) (Gal(b1-3)Gal(b1-4)GlcNAc): -0.21 | glycan array binding signal (z-score) [29]: 0.14 | glycan array binding signal (z-score) (Gal(b1-3)GalNAc): -0.155
